According to patent US20150175687A1:

Target: recombinant mature myostatin (human) (UniProt O14793)
UniProt O14793, sequence (O14793 267-375): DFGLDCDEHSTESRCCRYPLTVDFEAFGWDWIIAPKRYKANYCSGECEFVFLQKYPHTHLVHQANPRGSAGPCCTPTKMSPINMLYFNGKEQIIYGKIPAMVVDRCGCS

B1: Myostatin-2xTN8-19 kc peptibody (Fc fusion)
chain: [letters of human IgG1 Fc left out]GSGSATGGSGSTASSGSGSATGQGHCTRWPWMCPPYGSGSATGGSGSTASSGSGSATGQGHCTRWPWMCPPY
With B1 the IC50 (nM), myostatin-induced luciferase, C2C12 pMARE-luc was 9 nM.
